About 14,000 (4.5%) of roughly 310,000 compounds showed an effect of 50% or more. Effects have a minus sign here. This is one part of the list.
biological target: human ether-à-go-go-related gene (hERG) potassium channel (human, UniProt Q12809); assay: primary screen, population patch clamp on CHO cells stably expressing hERG
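Further: peak tail current of the secondary pulse compared with the same well before compound.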

Sequence of human ether-à-go-go-related gene (hERG) potassium channel (Q12809 whole entry, looked up): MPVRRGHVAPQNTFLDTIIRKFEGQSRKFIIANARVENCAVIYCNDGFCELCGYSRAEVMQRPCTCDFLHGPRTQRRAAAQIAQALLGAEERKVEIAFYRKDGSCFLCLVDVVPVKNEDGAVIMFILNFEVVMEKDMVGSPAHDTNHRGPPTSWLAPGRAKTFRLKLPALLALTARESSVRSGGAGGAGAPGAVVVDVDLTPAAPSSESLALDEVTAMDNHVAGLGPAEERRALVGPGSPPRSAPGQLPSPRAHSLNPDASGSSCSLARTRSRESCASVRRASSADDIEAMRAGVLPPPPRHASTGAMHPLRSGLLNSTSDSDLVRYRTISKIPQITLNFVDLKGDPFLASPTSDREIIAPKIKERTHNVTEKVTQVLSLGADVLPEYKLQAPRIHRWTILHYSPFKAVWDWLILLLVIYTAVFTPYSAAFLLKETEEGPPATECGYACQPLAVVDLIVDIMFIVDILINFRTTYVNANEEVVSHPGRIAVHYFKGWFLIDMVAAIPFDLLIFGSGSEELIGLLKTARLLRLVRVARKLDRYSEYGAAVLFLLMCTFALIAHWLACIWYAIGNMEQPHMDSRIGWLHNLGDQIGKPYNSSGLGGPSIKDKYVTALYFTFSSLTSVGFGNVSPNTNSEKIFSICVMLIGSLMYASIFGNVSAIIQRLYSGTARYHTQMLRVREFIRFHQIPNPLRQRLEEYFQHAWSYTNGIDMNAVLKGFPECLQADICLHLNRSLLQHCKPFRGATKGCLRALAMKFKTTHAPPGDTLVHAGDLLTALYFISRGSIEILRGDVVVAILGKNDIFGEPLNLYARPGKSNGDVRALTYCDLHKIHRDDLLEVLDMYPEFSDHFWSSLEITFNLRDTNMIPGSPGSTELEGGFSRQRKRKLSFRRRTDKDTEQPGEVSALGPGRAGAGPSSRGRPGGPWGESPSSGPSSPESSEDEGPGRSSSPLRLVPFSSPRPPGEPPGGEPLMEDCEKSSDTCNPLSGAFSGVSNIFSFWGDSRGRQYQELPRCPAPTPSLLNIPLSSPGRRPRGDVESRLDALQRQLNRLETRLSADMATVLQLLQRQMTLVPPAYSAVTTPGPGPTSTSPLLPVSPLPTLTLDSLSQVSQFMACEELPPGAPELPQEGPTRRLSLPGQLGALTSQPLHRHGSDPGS

| Compound | hERG current change (%, negative = inhibition) at 10uM [%] |
| --- | --- |
| Cc1nnc2c3ccccc3c(Cl)nn12 | -10.9 |
| COc1cccc(Cn2cnc3c(NS(=O)(=O)c4cc(Cl)ccc4Cl)c(C)c(C)cc32)c1 | 9.84 |
| COc1ccccc1CNC(=O)c1ccc(CS(=O)(=O)c2ccccc2C)o1 | -29.6 |
| CC(=O)N1CCN(C(=O)c2cc(-c3ccc(Cl)s3)nc3ccccc23)CC1 | -51.8 |
| CC1=CC2=NC(=O)CC(C)(C(=O)N(CC(=O)NC3CCCC3)c3ccccc3F)N2C=C1 (stereo not drawn) | 29.1 |
| Cc1ccc(CSc2nnc(-c3ccco3)o2)cc1 | -0.292 |
| CC(=O)c1cc(C#N)c(SCc2ccccc2)nc1C | 10.8 |
| Cc1ccc(NC(=O)COc2coc(CN3c4ccccc4CC3C)cc2=O)c(C)c1 (stereo not drawn) | -14.8 |
| COc1ccc(S(=O)(=O)Nc2cccc(SC)c2)cc1C(=O)N1CCOCC1 | 8.35 |
| COc1c(Cl)cc(C(=O)NN)cc1Cl | 0.95 |
| CCOC(=O)C1CCCN(S(=O)(=O)c2ccc(F)c(C(=O)Nc3ccc(F)c(F)c3)c2)C1 (stereo not drawn) | -41.9 |
| COc1ccccc1-n1nnnc1SCC(=O)NC1CCCCC1 | -6.72 |
| Cc1cc(=O)oc2cc(OCC(=O)OCC(=O)Nc3ccccc3C(C)C)ccc12 | 3.47 |
| CCCN1CCN(CCCNC(=O)c2ccc3c(c2)NC(=O)c2ccccc2S3)CC1 | -10.6 |
| COc1ccccc1N1CCN(C(=O)c2ccc3c(Cl)c4c(nc3c2)CCCC4)CC1 | 3.73 |
| CC1=C([N+](=O)[O-])C(c2ccccc2C(F)(F)F)NC(=O)N1C (stereo not drawn) | 3.59 |
| CC/C(=N/Nc1ccccc1C)c1cnnc(SC)n1 | 9.7 |
| O=C(C1CCCN(S(=O)(=O)c2cccc3cccnc23)C1)N1CCc2ccccc21 (stereo not drawn) | -39.6 |
| COC(=O)Nc1sc2c(c1C(=O)N1CCOCC1)CCC(C)C2 (stereo not drawn) | -7.32 |
| CCc1ccccc1NC(=S)N(CCCN(C)C)Cc1cc2cc3c(cc2[nH]c1=O)OCO3 | -19.7 |
| CCN(C(=O)CCN1C(=O)c2ccccc2C1=O)C1CCCCC1 | -1.43 |
| COc1cc(=O)n2c(-c3ccccc3)csc2n1 | 7.98 |
| COc1cccc(C(=O)NC(=O)Nc2nc(C)cc(C(F)(F)F)n2)c1 | 12 |
| CC(=O)NC1C(=O)N(Cc2ccccc2)c2ccc(Br)cc21 (stereo not drawn) | -7.32 |

— publication PMC4336329 (PLoS ONE, 2015)
